Assay results reported in PubChem BioAssay (NCATS).
Inconclusive results, whose numbers are uncertain, are shown with a selection of clear calls. No potency is given beside an inconclusive call; the fits are too rough. The source made the active and inactive calls. Calls come from the whole dose curve; as a rule, active = well fitted cell-killing curve with a large enough effect; inconclusive = small, poorly fitted or top-dose-only effect; inactive = no such curve, though single readings can be large or run the other way.

Experiment: qHTS of pediatric cancer cell lines to identify multiple opportunities for drug repurposing: Primary screen for A673 cells (AID 1347092); note: nearly all actives have a fitted effect of over 45% in size
Conditions: A673 Ewing sarcoma viability, CellTiter-Glo ATP luminescence, 48 h; activity change, negative = cytotoxic: at 46 µM (top of the series)
How it was run: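 Cells are plated, rested 5 h, dosed by pintool, incubated 48 h, then lysed with CellTiter-Glo and read by luminescence. DMSO is the neutral control; bortezomib at 2.3 uM final is the positive control.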
% is set by controls: 0 for no effect and ±100 for the full control effect; potency is the fitted concentration of half-maximal effect; tags give direction and shape of the fitted curve.

Row | Structure (SMILES) | Potency | activity change, negative = cytotoxic
1 | CN[C@@H](C)[C@H]1[C@H](O)C[C@@]2(C)[C@@H]3CC[C@H]4C(C)(C)[C@@H](NC)CC[C@@]45C[C@@]35CC[C@]12C | inconclusive [cytotoxic, partial curve] | –
2 | O=C(O)c1cc(=O)[nH]c(=O)[nH]1 | inactive | –
3 | CN(N=O)C(=O)N[C@H]1C(O)OC(CO)[C@@H](O)[C@H]1O (some centres not stated) | – | inactive: -4.87%
4 | CC1CC2C3CCC4=CC(=O)C=C[C@]4(C)[C@@]3(F)[C@@H](O)C[C@]2(C)[C@@]1(O)C(=O)CO (some centres not stated) | inconclusive [cytotoxic, single point] | –
5 | Cc1c[nH]c(C=C2C(=O)Nc3ccccc32)c1CCC(=O)O | inconclusive [cytotoxic, partial curve] | –
6 | NC(=O)c1ncn([C@@H]2O[C@H](CO)[C@@H](O)[C@@H]2O)c1N | – | inactive: 1.93%
7 | N[C@@]1(C(=O)O)CS(=O)(=O)[C@H]2[C@H](C(=O)O)[C@H]21 | active: 1.87 µM | –
8 | Nc1cc(C(Cl)=C(Cl)Cl)c(S(N)(=O)=O)cc1S(N)(=O)=O | inconclusive [cytotoxic, partial curve] | –
9 | Cn1cc(C=C2C(=O)Nc3cccnc32)c2ccccc21 | inconclusive [cytotoxic, partial curve] | –
10 | Cc1cnc(C(=O)O)c[n+]1[O-] | – | inactive: -6.27%
11 | O=C(NCCO[N+](=O)[O-])c1cccnc1 | inconclusive [cytotoxic, single point] | –
12 | O=C(NOCC(O)CO)c1cc(Br)c(F)c(F)c1Nc1ccc(I)cc1F (configuration not stated) | active: 9.35 µM | –
